The values that follow come from ChEMBL document CHEMBL4888484, “Replenishing the malaria drug discovery pipeline: Screening and hit evaluation of the MMV Hit Generation Library 1 (HGL1) against asexual blood stage Plasmodium falciparum ,using a nano luciferase reporter read-out” (2022).

SMILES strings stand for the structures. About 540 (0.36%) of roughly 150,000 compounds showed an effect of 50% or more. This is one part of the list.

In the test the test system is Plasmodium falciparum. Description: Primary screen in NF54 nanoGlo assay, in single point, at 2uM, 72h; a lower Z score goes with more inhibition. To be noted: timepoint 72 hour. The class given is functional, Erythrocyte.
Turning to `CN(C)[C@@H]1C[C@@H](CO)N(Cc2ccc3ccccc3n2)C1`, the “% Inhibition” value was found to be 4% and the Z score is -0.61.

For `Cc1nc2c(n1[C@H]1CCN(C(=O)CCCOc3cccnc3)C1)CCCC2`, the “% Inhibition” value is given as 5% and the Z score is on record as -0.63.

With `Cc1cnn([C@H]2[C@@H]3OC[C@@H](O3)[C@@H](NCc3cnn(C)c3)[C@@H]2O)c1`, the “% Inhibition” value is on record as -9% and the Z score is 1.18.

Turning to `O=C(NCc1cccnc1-c1ccncc1)c1ccc(Cl)c(Cl)c1`, the “% Inhibition” value is -8% and the Z score amounted to 1.4.

`Cn1ncc(N2CC[C@H](C(=O)NCCc3ccccc3)C2)cc1=O`: the “% Inhibition” value is on record as -14% and the Z score worked out at 1.99.

Consider `COc1cc(OC)c(NC(=O)C2CCN(S(=O)(=O)c3cc4c(cc3C)NC(=O)CO4)CC2)cc1Cl`, for which the “% Inhibition” value is listed as 2% and the Z score is on record as -0.24.

Take `O=C(NC1CCCCCC1CO)C1(O)CCCC1` (stereo not drawn): the “% Inhibition” value is listed as -11% and the Z score is given as 1.22.

As to `CC(C)c1ccc(C(=O)NC[C@@H]2COc3ccccc3C2)c(=O)n1C`, the “% Inhibition” value is -12% and the Z score came out at 1.64.

As to `COc1cc(OC)cc(C(=O)N/C(=N/c2ccccc2)NCc2cccnc2)c1`, the “% Inhibition” value is recorded as -25% and the Z score turned out to be 2.32.

As for `Cc1ccc[n+](CC2OCc3ccccc3CO2)c1`, the “% Inhibition” value is 5% and the Z score was -0.68.

On to `CCc1c(C)nc(C)nc1NCC[C@H]1CCCOC1`, for which the “% Inhibition” value worked out at 1% and the Z score was -0.27.

As to `C=CCNS(=O)(=O)c1ccc(Br)c(C)c1`, the “% Inhibition” value was -13% and the Z score amounted to 1.63.

Take `Cc1nc(C#N)c(NC[C@@H](c2ccsc2)N(C)C)o1`: the “% Inhibition” value is reported as -3% and the Z score worked out at 0.38.

Turning to `c1ncn(CC2CCN(c3nc(C4CCCC4)ns3)CC2)n1`, the “% Inhibition” value is given as 1% and the Z score is reported as -0.13.

For `CCOc1cccc(CNC(=O)[C@@H]2CCCCC(=O)N2Cc2cccc(OC)c2)c1`, the “% Inhibition” value came out at 2% and the Z score was -0.36.

As to `C#CCOC[C@@H](O)CN(CCC)Cc1ccc(OC)cc1`, the “% Inhibition” value is -6% and the Z score stood at 0.79.

For `COc1ccc(Oc2c(CN(CC3CC3)C(=O)c3cccc(F)c3)c(-c3ccccc3)nn2C)cc1`, the “% Inhibition” value was found to be 8% and the Z score is on record as -0.7.

Turning to `Cc1ccncc1N1CCN(c2nccn3cnnc23)CC1`, the “% Inhibition” value was -1% and the Z score is recorded as 0.16.

Take `CNc1ccnc(N2CCC[C@]3(CCC(=O)N(C(C)C)C3)C2)n1`: the “% Inhibition” value was -14% and the Z score was determined as 1.7.

Regarding `CC(C)NC[C@H](O)Cn1c(-c2ccccc2)ccc1-c1ccccc1`, the “% Inhibition” value turned out to be 8% and the Z score is on record as -1.24.

On to `CC(=O)Nc1ccc2[nH]c(C)c([C@H](Nc3cc(C)ccn3)c3ccccn3)c2c1`, for which the “% Inhibition” value is on record as -3% and the Z score is given as 0.53.

As for `COc1cc(CN2CCc3ccccc3[C@@H]2CO)cc2c1OCCO2`, the “% Inhibition” value was -10% and the Z score is on record as 1.14.

In the case of `O=c1nc(O)c2nsnc2n1CCO`, the “% Inhibition” value was found to be 4% and the Z score is -0.45.

Turning to `O=C(c1noc2ccc(S(=O)(=O)NC3CCCCC3)cc12)N1CCOCC1`, the “% Inhibition” value is listed as 0% and the Z score was 0.03.
